Data: the supplement of paper PMC8728848
The other results are listed elsewhere or left out.

Tests used:
Test in all cases: glycan array binding signal (z-score within array); higher = stronger binding
Conditions in all cases: glycan notation: IUPAC condensed, linker removed
[1] = target: Gal(b1-4)GlcNAc(a1-6)Gal(b1-4)GlcNAc
Procedure, shortened: (§1)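 Glycan array data were curated from 3228 arrays in the Consortium for Functional Glycomics database and kept only where the protein sequence was available. Glycan names were converted to IUPAC-condensed notation, and columns mapping to the same glycan were averaged. The binding signal is a within-array Z-score, averaged across arrays of the same protein sequence at different concentrations or buffers and across linkers. Negative Z-scores can be read as non-binding.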

[2] = target: Gal(b1-4)GlcNAc(b1-2)Man(a1-3)Man(b1-4)GlcNAc(b1-4)GlcNAc
Procedure, shortened: as §1

[3] = target: Gal(b1-4)GlcNAc(b1-2)Man(a1-3)[Gal(b1-4)GlcNAc(b1-2)Man(a1-6)]Man(b1-4)GlcNAc(b1-4)GlcNAc
Procedure, shortened: as §1

[4] = target: Gal(b1-4)GlcNAc(b1-2)Man(a1-3)[Gal(b1-4)GlcNAc(b1-2)Man(a1-6)]Man(b1-4)GlcNAc(b1-4)[Fuc(a1-6)]GlcNAc
Procedure, shortened: as §1

[5] = target: Gal(b1-4)GlcNAc(b1-2)Man(a1-3)[GlcNAc(b1-2)Man(a1-6)]Man(b1-4)GlcNAc(b1-4)GlcNAc
Procedure, shortened: as §1

[6] = target: Gal(b1-4)GlcNAc(b1-2)Man(a1-3)[Man(a1-6)]Man(b1-4)GlcNAc(b1-4)GlcNAc
Procedure, shortened: as §1

[7] = target: Gal(b1-4)GlcNAc(b1-2)Man(a1-6)Man(b1-4)GlcNAc(b1-4)GlcNAc
Procedure, shortened: as §1

[8] = target: Gal(b1-4)GlcNAc(b1-2)Man(a1-6)[GlcNAc(b1-2)Man(a1-3)]Man(b1-4)GlcNAc(b1-4)GlcNAc
Procedure, shortened: as §1

[9] = target: Gal(b1-4)GlcNAc(b1-2)Man(a1-6)[Man(a1-3)]Man(b1-4)GlcNAc(b1-4)GlcNAc
Procedure, shortened: as §1

[10] = target: Gal(b1-4)GlcNAc(b1-2)[Gal(b1-4)GlcNAc(b1-4)]Man(a1-3)[Gal(b1-4)GlcNAc(b1-2)Man(a1-6)]Man(b1-4)GlcNAc(b1-4)GlcNAc
Procedure, shortened: as §1

[11] = target: Gal(b1-4)GlcNAc(b1-2)[Gal(b1-4)GlcNAc(b1-4)]Man(a1-3)[Gal(b1-4)GlcNAc(b1-2)[Gal(b1-4)GlcNAc(b1-6)]Man(a1-6)]Man(b1-4)GlcNAc(b1-4)GlcNAc
Procedure, shortened: as §1

[12] = target: Gal(b1-4)GlcNAc(b1-3)Gal(b1-3)GlcNAc
Procedure, shortened: as §1

[13] = target: Gal(b1-4)GlcNAc(b1-3)Gal(b1-4)Glc
Procedure, shortened: as §1

[14] = target: Gal(b1-4)GlcNAc(b1-3)Gal(b1-4)GlcNAc
Procedure, shortened: as §1

[15] = target: Gal(b1-4)GlcNAc(b1-3)Gal(b1-4)GlcNAc(b1-3)Gal(b1-4)GlcNAc
Procedure, shortened: as §1

[16] = target: Gal(b1-4)GlcNAc(b1-3)Gal(b1-4)[Fuc(a1-3)]GlcNAc(b1-3)Gal(b1-4)[Fuc(a1-3)]GlcNAc
Procedure, shortened: as §1

[17] = target: Gal(b1-4)GlcNAc(b1-3)GalNAc
Procedure, shortened: as §1

[18] = target: Gal(b1-4)GlcNAc(b1-3)[Gal(b1-4)GlcNAc(b1-6)]Gal(b1-4)GlcNAc
Procedure, shortened: as §1

[19] = target: Gal(b1-4)GlcNAc(b1-3)[Gal(b1-4)GlcNAc(b1-6)]GalNAc
Procedure, shortened: as §1

[20] = target: Gal(b1-4)GlcNAc(b1-3)[GlcNAc(b1-6)]Gal(b1-4)GlcNAc
Procedure, shortened: as §1

[21] = target: Gal(b1-4)GlcNAc(b1-6)Gal(b1-4)GlcNAc
Procedure, shortened: as §1

[22] = target: Gal(b1-4)GlcNAc(b1-6)GalNAc
Procedure, shortened: as §1

[23] = target: Gal(b1-4)GlcNAc(b1-6)[Gal(b1-3)]GalNAc
Procedure, shortened: as §1

Gal3S(b1-3)GalNAc = target: Gal3S(b1-3)GalNAc
Procedure, shortened: as §1

Gal3S(b1-3)GlcNAc = target: Gal3S(b1-3)GlcNAc
Procedure, shortened: as §1

[24] = target: Gal3S(b1-3)[Fuc(a1-4)]GlcNAc
Procedure, shortened: as §1

Gal3S(b1-4)Glc = target: Gal3S(b1-4)Glc
Procedure, shortened: as §1

Gal3S(b1-4)Glc6S = target: Gal3S(b1-4)Glc6S
Procedure, shortened: as §1

Gal3S(b1-4)GlcNAc = target: Gal3S(b1-4)GlcNAc
Procedure, shortened: as §1

Gal3S(b1-4)GlcNAc6S = target: Gal3S(b1-4)GlcNAc6S
Procedure, shortened: as §1

[25] = target: Gal3S(b1-4)[Fuc(a1-3)]Glc
Procedure, shortened: as §1

[26] = target: Gal3S(b1-4)[Fuc(a1-3)]Glc6S
Procedure, shortened: as §1

Gal3S4S(b1-4)GlcNAc = target: Gal3S4S(b1-4)GlcNAc
Procedure, shortened: as §1

Gal3S6S(b1-4)GlcNAc = target: Gal3S6S(b1-4)GlcNAc
Procedure, shortened: as §1

Gal3S6S(b1-4)GlcNAc6S = target: Gal3S6S(b1-4)GlcNAc6S
Procedure, shortened: as §1

Gal4S(b1-4)GlcNAc = target: Gal4S(b1-4)GlcNAc
Procedure, shortened: as §1

Gal4S6S(b1-4)GlcNAc = target: Gal4S6S(b1-4)GlcNAc
Procedure, shortened: as §1

Gal6S(b1-4)Glc = target: Gal6S(b1-4)Glc
Procedure, shortened: as §1

Gal6S(b1-4)Glc6S = target: Gal6S(b1-4)Glc6S
Procedure, shortened: as §1

Gal6S(b1-4)GlcNAc = target: Gal6S(b1-4)GlcNAc
Procedure, shortened: as §1

Gal6S(b1-4)GlcNAc6S = target: Gal6S(b1-4)GlcNAc6S
Procedure, shortened: as §1

GalNAc(a1-3)Gal = target: GalNAc(a1-3)Gal
Procedure, shortened: as §1

GalNAc(a1-3)GalNAc = target: GalNAc(a1-3)GalNAc
Procedure, shortened: as §1

[27] = target: GalNAc(a1-3)GalNAc(a1-3)Gal(a1-4)Gal(b1-4)GlcNAc
Procedure, shortened: as §1

GalNAc(b1-3)Gal = target: GalNAc(b1-3)Gal
Procedure, shortened: as §1

B1: GH98CBM51-1 (Streptococcus pneumoniae) (protein)
chain: MTYLSDMDWSSATHGDIDKTKTVQKDAPFTTGNKGEHTKISLLTSDDKVKYFDKGIGTVADSPSVISYDISGQGFEKFETYIGIDQSANSSRSDHAVVDRIEIEIDGKVVYSSSVTNPEGFRYNTQAQFISVTIPQNAKKISLKSFAGEHTWGDEVVFADAKLIKTVST
[1]
  glycan array binding signal (z-score): -0.186
[2]
  glycan array binding signal (z-score): -0.193
[3]
  glycan array binding signal (z-score): -0.191
[4]
  glycan array binding signal (z-score): -0.188
[5]
  glycan array binding signal (z-score): -0.192
[6]
  glycan array binding signal (z-score): -0.189
[7]
  glycan array binding signal (z-score): -0.191
[8]
  glycan array binding signal (z-score): -0.19
[9]
  glycan array binding signal (z-score): -0.193
[10]
  glycan array binding signal (z-score): -0.19
[11]
  glycan array binding signal (z-score): -0.139
[12]
  glycan array binding signal (z-score): -0.19
[13]
  glycan array binding signal (z-score): -0.19
[14]
  glycan array binding signal (z-score): -0.196
[15]
  glycan array binding signal (z-score): -0.193
[16]
  glycan array binding signal (z-score): -0.195
[17]
  glycan array binding signal (z-score): -0.191
[18]
  glycan array binding signal (z-score): -0.191
[19]
  glycan array binding signal (z-score): -0.194
[20]
  glycan array binding signal (z-score): -0.187
[21]
  glycan array binding signal (z-score): -0.191
[22]
  glycan array binding signal (z-score): -0.185
[23]
  glycan array binding signal (z-score): -0.191
Gal3S(b1-3)GalNAc
  glycan array binding signal (z-score): -0.184
Gal3S(b1-3)GlcNAc
  glycan array binding signal (z-score): -0.175
[24]
  glycan array binding signal (z-score): -0.177
Gal3S(b1-4)Glc
  glycan array binding signal (z-score): -0.183
Gal3S(b1-4)Glc6S
  glycan array binding signal (z-score): -0.175
Gal3S(b1-4)GlcNAc
  glycan array binding signal (z-score): -0.188
Gal3S(b1-4)GlcNAc6S
  glycan array binding signal (z-score): -0.175
[25]
  glycan array binding signal (z-score): -0.181
[26]
  glycan array binding signal (z-score): -0.183
Gal3S4S(b1-4)GlcNAc
  glycan array binding signal (z-score): -0.187
Gal3S6S(b1-4)GlcNAc
  glycan array binding signal (z-score): -0.19
Gal3S6S(b1-4)GlcNAc6S
  glycan array binding signal (z-score): -0.174
Gal4S(b1-4)GlcNAc
  glycan array binding signal (z-score): -0.184
Gal4S6S(b1-4)GlcNAc
  glycan array binding signal (z-score): -0.187
Gal6S(b1-4)Glc
  glycan array binding signal (z-score): -0.188
Gal6S(b1-4)Glc6S
  glycan array binding signal (z-score): -0.163
Gal6S(b1-4)GlcNAc
  glycan array binding signal (z-score): -0.186
Gal6S(b1-4)GlcNAc6S
  glycan array binding signal (z-score): -0.185
GalNAc(a1-3)Gal
  glycan array binding signal (z-score): -0.186
GalNAc(a1-3)GalNAc
  glycan array binding signal (z-score): -0.187
[27]
  glycan array binding signal (z-score): -0.187
GalNAc(b1-3)Gal
  glycan array binding signal (z-score): -0.185
